# Measured values: the supplement of paper PMC9446081
# The campaign covered roughly 39,000 compounds. About 220 (0.56%) showed activity. Some of the results follow.
# Tested on: Escherichia coli K-12 BW25113
# Assay: relative growth (OD600 normalised to plate interquartile mean) (fraction); higher = less growth inhibition, active = 0.2 or less
# Conditions: 50 µM; LB; incubation time: overnight (16-24 h)
# 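Note: static incubation at 37 °C against the wild-type strain, values averaged over two biological replicates.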
row,Compound,relative growth
1,COc1ccc(NC(=O)Nc2ccc3c(c2)CC(=O)N([C@H](C)CO)C[C@@H](C)[C@H](CN(C)C(=O)Nc2ccc(C(F)(F)F)cc2)O3)cc1,inactive: 1.02
2,Cc1nc(-c2ccccc2)cs1,inactive: 1.07
3,C[C@H](CO)N1C[C@H](C)[C@H](CN(C)C(=O)Nc2ccc(C(F)(F)F)cc2)Oc2ccc(NC(=O)Nc3ccc4c(c3)OCO4)cc2C1=O,inactive: 0.999
4,C[C@@H]1CCCCO[C@@H](CN(C)C(=O)Nc2ccc3c(c2)OCO3)[C@H](C)CN([C@H](C)CO)C(=O)c2cc(NC(=O)Nc3ccc4c(c3)OCO4)ccc2O1,inactive: 1.01
5,C[C@@H]1CCCCO[C@H](CN(C)C(=O)Nc2ccccc2)[C@@H](C)CN([C@@H](C)CO)C(=O)c2cc(NS(=O)(=O)c3cccs3)ccc2O1,inactive: 1.01
6,Cc1ccc(S[C@]2(C(=O)NC3CC3)CC(=O)N(C3Cc4ccccc4C3)[C@@H]2c2ccc(CO)cc2I)cc1,inactive: 1.02
7,C[C@H]1CN([C@@H](C)CO)C(=O)c2cc(NS(C)(=O)=O)ccc2O[C@H]1CN(C)S(=O)(=O)c1ccc(F)cc1,inactive: 1
8,C[C@H](CO)N1C[C@H](C)[C@H](CN(C)S(=O)(=O)c2cn(C)cn2)Oc2c(NS(=O)(=O)c3cn(C)cn3)cccc2C1=O,inactive: 0.985
9,Cc1ccc(S(=O)(=O)Nc2ccc3c(c2)CC(=O)N([C@@H](C)CO)C[C@@H](C)[C@@H](CN(C)CC2CC2)O3)cc1,inactive: 0.986
10,COc1ccc(NC(=O)N(C)C[C@H]2Oc3c(NC(=O)CCCCCC(=O)Nc4ccccc4N)cccc3C(=O)N([C@H](C)CO)C[C@@H]2C)cc1,inactive: 1
11,CO[C@@H]1CN(C)C(=O)c2cc(NC(=O)Nc3ccc(Cl)cc3)ccc2OC[C@H](C)N(C(=O)Nc2c(C)noc2C)C[C@@H]1C,inactive: 0.959
12,C[C@@H]1CN([C@@H](C)CO)C(=O)Cc2cc(NC(=O)C3CCCCC3)ccc2O[C@@H]1CN(C)Cc1ccc(-c2ccccc2)cc1,inactive: 1.04
13,COCCNC(=O)C[C@@H]1CC[C@H]2[C@@H](COc3ccc(NS(=O)(=O)c4ccc(Cl)cc4)cc3C(=O)N2C)O1,inactive: 1.03
14,C[C@@H]1CN([C@@H](C)CO)C(=O)c2cc(NC(=O)c3ccccc3)ccc2O[C@@H](C)CCCCO[C@H]1CN(C)C(=O)Nc1ccc2c(c1)OCO2,inactive: 1.02
15,C[C@@H]1CCCCO[C@@H](CN(C)C(=O)C2CCCCC2)[C@H](C)CN([C@H](C)CO)C(=O)c2cc(NC(=O)Nc3ccccc3)ccc2O1,inactive: 1.02
16,COc1cccc(S(=O)(=O)N(C)C[C@H]2Oc3ncc(C#CCN(C)C)cc3C(=O)N([C@H](C)CO)C[C@@H]2C)c1,inactive: 1.01
17,C[C@@H]1CN([C@H](C)CO)C(=O)c2cc(NC(=O)Nc3cccc4ccccc34)ccc2O[C@@H](C)CCCCO[C@@H]1CN(C)Cc1ccc(C(=O)O)cc1,inactive: 1.01
18,C[C@@H]1CCCCO[C@@H](CN(C)S(C)(=O)=O)[C@@H](C)CN([C@H](C)CO)C(=O)c2cc(NS(=O)(=O)c3ccc(F)cc3)ccc2O1,inactive: 1.01
19,C[C@H]1CN([C@@H](C)CO)C(=O)Cc2cc(NC(=O)CCC(F)(F)F)ccc2O[C@@H]1CN(C)C(=O)Nc1cccc2ccccc12,inactive: 0.989

row,Compound,relative growth
1,C[C@@H]1CN([C@H](C)CO)C(=O)c2cc(NS(C)(=O)=O)ccc2O[C@@H](C)CCCCO[C@@H]1CN(C)S(=O)(=O)c1cccs1,inactive: 1.01
2,C[C@H]1CCCCO[C@H](CN(C)C(=O)NC2CCCCC2)[C@@H](C)CN([C@@H](C)CO)C(=O)c2cc(NC(=O)Nc3ccc(F)cc3)ccc2O1,inactive: 1.04
3,Cc1ccc(S(=O)(=O)N(C)C[C@H]2OCCCC[C@H](C)Oc3ccc(NS(C)(=O)=O)cc3C(=O)N([C@@H](C)CO)C[C@H]2C)cc1,inactive: 1
4,C[C@H]1CN([C@@H](C)CO)C(=O)c2c(c3ccccc3n2C)-c2ccccc2CO[C@@H]1CN(C)S(=O)(=O)c1ccc(Cl)cc1,inactive: 1.03
5,CC(C)NC(=O)N[C@H]1C=C[C@@H](CC(=O)NCCCN(C)C)O[C@@H]1CO,inactive: 0.983
6,CN(C)C1C(O)=C(C(N)=O)C(=O)C2(O)C(O)=C3C(=O)c4c(O)cccc4C(C)(O)C3CC12.Cl (configuration not stated),active: 0.056
7,C[C@H](CO)N1C[C@H](C)[C@H](CN(C)C)OCCCC[C@H](C)Oc2ccc(NC(=O)Nc3cccc4ccccc34)cc2C1=O,inactive: 0.988
8,CC(C)=CCC[C@@H](C)CCO,inactive: 0.992
9,N=c1c(C(N)=S)cnc2ccccn12,inactive: 1.01
10,Cc1noc(C)c1S(=O)(=O)Nc1cccc2c1O[C@@H](CN(C)S(=O)(=O)c1ccc(Cl)cc1)[C@@H](C)CN([C@@H](C)CO)C2=O,inactive: 1.02
11,Cc1ccc(S(=O)(=O)Nc2ccc3c(c2)CC(=O)N([C@H](C)CO)C[C@@H](C)[C@H](CN(C)S(=O)(=O)c2ccccc2)O3)cc1,inactive: 0.999
12,NC1(CC(=O)O)CCN(Cc2ccccc2)CC1,inactive: 0.999
13,C[C@H]1CN([C@@H](C)CO)C(=O)c2c(c3ccccc3n2C)-c2ccccc2CO[C@H]1CN(C)Cc1ccc(F)cc1,inactive: 0.998
14,C[C@@H]1CN([C@H](C)CO)C(=O)c2cc(NC(=O)Cc3ccccc3)ccc2O[C@@H](C)CCCCO[C@@H]1CN(C)Cc1ccccc1,inactive: 0.988
15,COc1ccc(NC(=O)Nc2ccc3c(c2)C(=O)N([C@H](C)CO)C[C@@H](C)[C@@H](CN(C)C(=O)Nc2ccc(OC)cc2)OCCCC[C@@H](C)O3)cc1,inactive: 1.02
16,Cc1noc(C)c1S(=O)(=O)N(C)C[C@@H]1Oc2ccc(NS(=O)(=O)c3ccc(F)cc3)cc2CC(=O)N([C@H](C)CO)C[C@H]1C,inactive: 1.02
17,C[C@@H]1CN([C@H](C)CO)C(=O)c2cccc(NC(=O)Nc3ccccc3)c2O[C@H]1CN(C)Cc1ccc(-c2ccccc2)cc1,inactive: 0.977
18,C[C@@H]1CN([C@@H](C)CO)C(=O)c2cccc(NS(=O)(=O)c3ccccc3)c2O[C@@H]1CN(C)CC1CC1,inactive: 1.02
